Source: the supplement of paper PMC3334620
The full ranking holds about 33,000 sequences; the median of “E-score (-0.5 to 0.5)” is about -0.013, and the highest 2% start at about 0.3. Some of the results follow.

These sequences were tested against T1, Msn1 (UniProt P22148) (assay: PBM E-score (8-mer binding enrichment) (E-score (-0.5 to 0.5)); higher = stronger / more preferred TF binding; most listed sequences are background and not binding sites). Settings: protein concentration: 200 nM; construct: GST-full length.
T1 sequence: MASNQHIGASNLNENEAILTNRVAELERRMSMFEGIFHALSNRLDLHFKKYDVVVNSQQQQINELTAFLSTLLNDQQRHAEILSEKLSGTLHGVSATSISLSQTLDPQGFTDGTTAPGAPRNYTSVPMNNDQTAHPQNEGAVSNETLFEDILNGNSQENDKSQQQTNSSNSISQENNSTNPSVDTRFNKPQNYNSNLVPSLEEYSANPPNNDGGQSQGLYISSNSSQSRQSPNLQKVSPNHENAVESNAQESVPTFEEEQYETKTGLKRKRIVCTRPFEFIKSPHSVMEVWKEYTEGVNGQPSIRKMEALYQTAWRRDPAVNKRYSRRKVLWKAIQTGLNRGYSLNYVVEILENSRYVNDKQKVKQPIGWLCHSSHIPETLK
In short: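 Masliner-normalised scans of fluorescent anti-GST signal were the basis for scoring. That signal came from GST-tagged yeast transcription factors applied at about 100-200 nM to double-stranded universal all-10-mer Agilent arrays on fresh or once-stripped slides. Each ungapped eight-base word, pooled with its reverse complement, received an E-score from the Universal PBM Analysis Suite.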

Row | Sequence | PBM E-score
1 | ACGTAGCA | -0.0445
2 | GCCCGGCC | -0.22
3 | ATTCCAAC | -0.0416
4 | GCCAACCA | -0.196
5 | CGTGCGTA | 0.0618
6 | AGATTAGG | -0.137
7 | AGCCGGAA | 0.184
8 | AAACATTC | 0.0737
9 | GGCGGATA | -0.117
10 | CGAGCACA | 0.0614
11 | GAATGTAA | -0.0699
12 | CGCGCTAA | 0.0134
13 | AGCCTTTG | -0.104
14 | AACGGAAT | 0.101
15 | ACAGCCGA | -0.16
16 | CTAAGATC | 0.203
17 | GGTAGGTA | -0.152
18 | GCGTCCGA | 0.123
19 | CCCAATAG | -0.0782
20 | AGCGTTTC | -0.0563
21 | GATAGACA | 0.331
22 | CCAGTCGG | -0.209
23 | ATCCTGTG | 0.00037
24 | ATTAGTAC | 0.228
25 | AAGTATGG | 0.127

Row | Sequence | PBM E-score
26 | ATGGGCGG | -0.0431
27 | AATAATTA | 0.17
28 | CATTAGCA | -0.0502
29 | AGGTGACT | 0.0672
30 | CTTTCCGC | 0.0223
31 | TGACCTAA | 0.231
32 | GCAGATCC | 0.0309
33 | CCACATTC | -0.174
34 | AGGGGGCC | -0.412
35 | AAGAAAGA | 0.122
36 | ACGGTCGG | -0.0232
37 | TGATCGCA | -0.0525
38 | CTAGAAAC | 0.0317
39 | GGTGCCGA | -0.0156
40 | CCATGTAG | -0.0462
41 | ATCTGACA | 0.155
42 | AGCTCTCG | -0.0908
43 | AATGCCCT | -0.0946
44 | ACAGAAAC | 0.0448
45 | CGTATCTA | 0.118
46 | CAGGTAAC | -0.0911
47 | CCCTCAAC | -0.272
48 | CGATATCG | 0.0659
49 | AGATGAGG | -0.231
50 | AGGAGTGC | -0.102

Row | Sequence | PBM E-score
51 | GAAACCTC | -0.154
52 | AGTGACAA | 0.302
53 | CCTCTCCG | -0.194
54 | TCACGACA | 0.322
55 | ACGACTCG | -0.0266
56 | AGTAGGCA | -0.07
57 | AGTAACCC | -0.0691
58 | TTACGAAA | 0.0138
59 | AACTATTG | 0.0905
60 | AAGCCATT | -0.0471
61 | CCCAAAGC | -0.0964
62 | GATACTAC | 0.0794
63 | ATAGCTTC | -0.134
64 | GAATATAA | 0.08
65 | CTCGGGTC | -0.119
66 | AGGAGGCC | -0.311
67 | CGGTAATA | 0.101
68 | GAGGATAC | -0.0207
69 | CCAGTTCA | -0.105
70 | AATCATTA | 0.107
71 | CCTCAGTA | -0.0965
72 | ATAGTTGC | 0.156
73 | CAGGTGGC | -0.319
74 | TACAGAAA | 0.189
75 | CGTAGTCA | -0.19

Row | Sequence | PBM E-score
76 | CGACCTCC | 0.0198
77 | ACTTGAAT | 0.0631
78 | ACCAGCCG | -0.0866
79 | AGCTCAAA | 0.0793
80 | CGGTCAAA | 0.142
81 | GGAGGAAC | -0.188
82 | ATAAGGCG | 0.0335
83 | AGGCTTGA | -0.0811
84 | ATCTCAAG | 0.0879
85 | CGACGTGA | -0.047
86 | CGGCACCC | -0.201
87 | CCGGTCAA | 0.127
88 | CATCGCGA | 0.0798
89 | CAAGACTC | 0.0404
90 | CCTACTTC | -0.0262
91 | AAAGGGGT | -0.238
92 | AACAACGG | 0.137
93 | ATATACAC | 0.0119
94 | ATCAGCGC | 0.0726
95 | GCCTCCGA | 0.00799
96 | AGACACTG | 0.0199
97 | CCGCTCAA | 0.018
98 | CTGCATCA | -0.187
99 | CCTGTGTC | 0.176
100 | AGGGGAAG | -0.241

Row | Sequence | PBM E-score
101 | CGTAGTAC | 0.00492
102 | AGTCAATG | -0.179
103 | CTAAATAG | -0.0809
104 | GATCGGGA | -0.121
105 | GTAAGGCA | -0.123
106 | AGGTCCCG | -0.173
107 | GTCCATCA | 0.257
108 | CACGGCTG | -0.156
109 | CCCCCGGC | -0.346
110 | GATCCCGA | -0.0549
111 | ATATGGAG | 0.12
112 | CTGGGAGA | -0.18
113 | CAGCCCCC | -0.421
114 | AGCTGGGG | -0.212
115 | GTACCGAA | 0.0667
116 | ACCGTACC | -0.22
117 | CGCACCAA | -0.00595
118 | ACGAATTC | -0.0515
119 | GGGATCGA | -0.224
120 | CGTCCTCA | -0.0499
121 | AAAAACAA | 0.204
122 | GGCTGAGA | -0.00423
123 | ATGCAGAG | -0.253
124 | ATGGCGAA | 0.0465
125 | GACAACTC | 0.298

Row | Sequence | PBM E-score
126 | CCATGGTC | -0.0376
127 | ACCCCCTC | -0.291
128 | CGTCACTA | 0.0773
129 | AGCGGCAG | -0.149
130 | CCAATCAG | -0.199
131 | ATGTACTA | 0.233
132 | ACCTTTAG | -0.0877
133 | CCGTGTTA | -0.183
134 | ACTAAGGC | -0.12
135 | AAAGGTCT | 0.0624
136 | AGAGTGTA | -0.201
137 | ATAGAACA | -0.0421
138 | CCTGTTAA | -0.00221
139 | ATTTCCCG | 0.188
140 | ACGCGGAT | -0.051
141 | ATCACGCA | 0.064
142 | AAAGCGCT | 0.174
143 | TAGAGGAA | -0.127
144 | GTAGCGGA | 0.0758
145 | ATTGGCAA | 0.0916
146 | CGTCGGGA | 0.088
147 | CTGGTCGC | -0.0171
148 | GACGCTGA | -0.0435
149 | ACGGCCAT | -0.086
150 | GCCCCCGC | -0.444

Row | Sequence | PBM E-score
151 | CGAGCAAC | 0.0153
152 | TCCATGAA | 0.26
153 | GGTTACCA | 0.0654
154 | AACTGTGT | 0.0511
155 | GCTTGACA | 0.0579
156 | AGCAAGCA | -0.124
157 | CACCGCTA | 0.00385
158 | ATTGTTAA | 0.0881
159 | CTGTTAAG | -0.018
160 | GTCGATTA | 0.0601
161 | TCACGTAA | -0.242
162 | CGGCCAAA | 0.0245
163 | ATAACGCC | 0.0308
164 | ACTGTTCG | 0.145
165 | TAAACGTA | 0.0172
166 | AACTCTTC | -0.128
167 | ATCGCGTA | -0.176
168 | ACGTGTGA | 0.0644
169 | AACCGGTG | -0.0222
170 | GAGAAACC | -0.0447
171 | ACCTATGG | 0.068
172 | CTATCCCA | -0.0147
